These results are taken from patent publication US20250297021A1 (SHANDONG SIMCERE BIOPHARMACEUTICAL CO NO 1, published 2025).

For assay [1], the target named is T1, BCMA expressed endogenously on U266 and H929 cells (UniProt Q02223 1-184, limits assumed).
T1 construct: whole, on cells; The cell line (U266 or H929) is named under assay in each row; also called B cell maturation antigen; CD269
T1 sequence (looked up): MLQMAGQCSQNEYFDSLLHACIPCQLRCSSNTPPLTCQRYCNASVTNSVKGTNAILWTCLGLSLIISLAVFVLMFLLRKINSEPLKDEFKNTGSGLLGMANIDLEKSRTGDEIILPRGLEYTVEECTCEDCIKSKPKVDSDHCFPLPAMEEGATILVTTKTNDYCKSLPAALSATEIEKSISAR
The assay can be described thus: FACS on U266 cells. Summed up: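 Binding measured by flow cytometry as mean fluorescence intensity, with EC50 from curve fitting. Antibody incubated 1 h at 4° C with cells suspended at 2×10⁶/ml in PBS containing 2% FCS, followed by washes.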

For the next assay, the target named is T2, human BCMA-His protein (human, UniProt Q02223 1-54).
T2 construct: Analyte in the SPR assay; also called human BCMA protein; BCMA antigen protein; not shown: His tag
T2 sequence (looked up): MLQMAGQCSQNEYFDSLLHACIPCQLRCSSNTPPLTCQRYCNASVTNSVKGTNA
Put plainly: SPR, antibody captured on Protein A chip, BCMA-His as analyte. The procedure: A sample buffer and a running buffer were HBS-EP+ (10 mM HEPES, 150 mM NaCl, 3 mM EDTA and 0.05% surfactant P20) (GE Healthcare; BR-1006-69). The flow-through cell was set to 25° C. The sample block was set to 16° C. Both were pretreated with the running buffer. In each cycle, an antibody to be tested was first captured with a Protein A chip, and then a single concentration of BCMA antigen protein was injected. The binding and dissociation processes of the antibody and the antigen protein were recorded, and finally Glycine pH 1.5 (GE Helthcare; BR-1003-54) was used to complete chip regeneration. Binding was measured by injecting different concentrations of BCMA-His in solution for 240 s with a flow rate of 30 μL/min. The concentration started from 200 nM (see the detailed results for the actual concentration in the test) and was diluted at 1:1, making a total of 5 concentrations. The dissociation phase was monitored for up to 600 s and was triggered by switching from sample solution to running buffer. The surface was regenerated by washing with a 10 mM glycine solution (pH 1.5) for 30 s at a flow rate of 30 μL/min. Bulk refractive index difference was corrected by subtracting the response obtained from the goat anti-human Fc surface. Blank injection was also subtracted (=double reference). For calculation of apparent KD and other kinetic parameters, Langmuir 1:1 model was used. The binding rate (Kₐ), dissociation rate (Kdis) and binding affinity (KD) of the chimeric antibodies to human BCMA protein are shown in the table, wherein REGN5459-hlgG1 and HPN217-hHcAb antibodies were used as controls.
The specific method was the same as that in Example 6. The binding rate (Kₐ), dissociation rate (Kdis) and binding affinity (KD) of the humanized antibodies to human BCMA protein are shown Table 38, wherein REGN5459-hlgG1 antibody is used as a control.
A general note: Surface plasmon resonance follows binding to a sensor surface in real time, without labels.

The target in assay [2] is T1, BCMA expressed endogenously on U266 and …. Put plainly: FACS on H929 cells.

B1: BCMA-01 VL1VH1 (Fc fusion)
scFv: EVQLVESGGGLVQPGGSLRLSCAASGFTFSDFYMYWVRQAPGKGLEWVAYITNGGENTYFPDTVKGRFTISRDNAKNSLYLQMNSLRAEDTAVYYCARQNPFYYYDSNYDYAMDFWGQGTTVTVSSGGGGSGGGGSGGGGSDVVMTQSPLSLPVTLGQPASISCKSSQSLLYSNGKTYLSWLFQRPGQSPRRLIYLVSELDSGVPDRFSGSGSGTDFTLKISRVEAEDVGVYYCVQGTHFPHTFGGGTKVEIK[human IgG1 Fc with C220S (EU numbers) not spelt out]
notes: humanized scFv-Fc
With B1, in assay [1], the 50% effective concentration (EC50) – broadly, the concentration needed to bring the measured effect to its halfway point – turned out to be 9.84 nM and the “Maximum mean fluorescence intensity” value was found to be 3860. For the same molecule, in the assay with human BCMA-His protein, binding was characterised by a dissociation constant (Kd) of 0.384 nM; the koff (in general, a measure of how fast the partners let go of each other) was 0.00067 s⁻¹; the kon – broadly, the second-order rate constant of association – was determined as 1.74e+06 M⁻¹ s⁻¹. For the same molecule, in assay [2], the half-maximal effective concentration (EC50) is 5.58 nM and the “Maximum mean fluorescence intensity” value turned out to be 8530.

B2: BCMA-01 VL1aVH1 (Fc fusion)
scFv: EVQLVESGGGLVQPGGSLRLSCAASGFTFSDFYMYWVRQAPGKGLEWVAYITNGGENTYFPDTVKGRFTISRDNAKNSLYLQMNSLRAEDTAVYYCARQNPFYYYDSNYDYAMDFWGQGTTVTVSSGGGGSGGGGSGGGGSDVVMTQSPLSLPVTLGQPASISCKSSQSLLYSNAKTYLSWLFQRPGQSPRRLIYLVSELDSGVPDRFSGSGSGTDFTLKISRVEAEDVGVYYCVQGTHFPHTFGGGTKVEIK[human IgG1 Fc with C220S (EU numbers) not spelt out]
notes: humanized scFv-Fc
Take B2: in assay [1], the EC50 was determined as 12.7 nM and the “Maximum mean fluorescence intensity” value stood at 3930. For the same molecule, in the assay with human BCMA-His protein, the Kd (commonly the constant that tells how readily two partners part at equilibrium) stood at 0.344 nM, the dissociation rate constant (koff) was found to be 0.000621 s⁻¹ and the on-rate (kon) came to 1.81e+06 M⁻¹ s⁻¹. Further, in assay [2], it took 8.7 nM to reach a half-maximal effect (EC50) and the “Maximum mean fluorescence intensity” value came out at 9370.

B3: BCMA-01 VL2VH1 (Fc fusion)
scFv: EVQLVESGGGLVQPGGSLRLSCAASGFTFSDFYMYWVRQAPGKGLEWVAYITNGGENTYFPDTVKGRFTISRDNAKNSLYLQMNSLRAEDTAVYYCARQNPFYYYDSNYDYAMDFWGQGTTVTVSSGGGGSGGGGSGGGGSDVVMTQSPLSLPVTLGQPASISCKSSQSLLYSNGKTYLSWLFQRPGQSPKRLIYLVSELDSGVPDRFSGSGSGTDFTLKISRVEAEDVGVYYCVQGTHFPHTFGGGTKVEIK[human IgG1 Fc with C220S (EU numbers) not spelt out]
notes: humanized scFv-Fc
Turning to B3, in assay [1], the response was half-maximal at 8.69 nM (EC50) and the “Maximum mean fluorescence intensity” value was found to be 4030. Further, in the assay with human BCMA-His protein, binding was put at a Kd of 0.37 nM, the koff came to 0.000655 s⁻¹ and the kon was 1.77e+06 M⁻¹ s⁻¹. Also, in assay [2], a half-maximal response (EC50) required 4.96 nM and the “Maximum mean fluorescence intensity” value was 9560.

B4: BCMA-01 VL2VH2a (Fc fusion)
scFv: EVQLVESGGGLVQPGGSLRLSCAASGFTFSDFYMYWVRQAPEKRLEWVAYITNAGENTYFPDTVKGRFTISRDNAKNSLYLQMNSLRAEDTAVYYCARQNPFYYYDSNYDYAMDFWGQGTTVTVSSGGGGSGGGGSGGGGSDVVMTQSPLSLPVTLGQPASISCKSSQSLLYSNGKTYLSWLFQRPGQSPKRLIYLVSELDSGVPDRFSGSGSGTDFTLKISRVEAEDVGVYYCVQGTHFPHTFGGGTKVEIK[human IgG1 Fc with C220S (EU numbers) not spelt out]
notes: humanized scFv-Fc
In the case of B4, in assay [1], it took 20.1 nM to reach a half-maximal effect (EC50) and the “Maximum mean fluorescence intensity” value worked out at 3650. For the same molecule, in the assay with human BCMA-His protein, the Kd was found to be 0.455 nM, the koff was found to be 0.000756 s⁻¹ and the kon came to 1.66e+06 M⁻¹ s⁻¹. Also, in assay [2], the EC50 turned out to be 11.8 nM and the “Maximum mean fluorescence intensity” value is 9720.
